# Results published in PubChem BioAssay AID1030 (National Center for Advancing Translational Sciences (NCATS), 2008).
# About 16,000 (7.3%) of roughly 220,000 compounds were called active. Inconclusive means that the source gave no clear call. Such entries were picked first, then a sample of the others. Calls follow the shape of the dose curve; as a rule, active = well fitted inhibition curve with a large enough effect (not every such curve was filed as active); inconclusive = small, poorly fitted or top-dose-only effect, or another doubt; inactive = no such curve, though single readings can be large or run the other way. Potencies of inconclusive entries are left out as doubtful fits.
# Target: Aldehyde dehydrogenase 1A1 (Homo sapiens) (UniProt P00352)
# Assay: qHTS Assay for Inhibitors of Aldehyde Dehydrogenase 1 (ALDH1A1);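 as to activity, negative = inhibition: plate controls were no enzyme wells and a reference inhibitor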
# Settings: Purified ALDH1A1, NADH fluorescence, propionaldehyde substrate; series mostly up to 75.3 µM
# Potency is read from the fitted curve at half-maximal effect; tags tell the direction and shape of the fitted curve.
# Sequence of UniProt P00352 (P00352 whole entry, looked up): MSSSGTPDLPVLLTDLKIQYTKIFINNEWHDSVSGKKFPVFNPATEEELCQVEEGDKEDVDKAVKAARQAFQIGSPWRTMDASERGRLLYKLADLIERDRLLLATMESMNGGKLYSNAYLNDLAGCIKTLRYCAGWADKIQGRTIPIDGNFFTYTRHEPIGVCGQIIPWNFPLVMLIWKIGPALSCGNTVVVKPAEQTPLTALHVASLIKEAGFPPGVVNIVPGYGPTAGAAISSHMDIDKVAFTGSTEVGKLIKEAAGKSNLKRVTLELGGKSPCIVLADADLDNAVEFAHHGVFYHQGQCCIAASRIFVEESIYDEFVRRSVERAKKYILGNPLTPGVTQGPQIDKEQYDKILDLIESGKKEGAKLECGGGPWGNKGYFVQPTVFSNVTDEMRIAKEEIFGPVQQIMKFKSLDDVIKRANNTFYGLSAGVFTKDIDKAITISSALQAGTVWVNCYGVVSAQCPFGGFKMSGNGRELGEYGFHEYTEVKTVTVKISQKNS
SMILES,Potency,"activity, negative = inhibition"
O=C(CSc1nc2ccccc2[nH]1)Nc1nc(-c2ccccc2)c(-c2ccccc2)o1,"inconclusive [inhibitor, single point]",–
Cc1ccc(-n2nc(C)c(C3(O)C(=O)N(C(C)C)c4ccccc43)c2N)cc1 (stereo unspecified),"inconclusive [inhibitor, partial curve]",–
Cc1ccc(NC(=O)c2cc(=O)c3ccccc3o2)cc1S(=O)(=O)N1CCCCC1,active: 31.6 µM,–
Cc1ccc(NC(=O)c2cc(-c3ccco3)nc3ccccc23)cc1S(=O)(=O)N1CCOCC1,"inconclusive [inhibitor, partial curve]",–
CCOc1cc(/C=N/Nc2nc(-c3cccc(S(=O)(=O)N4CCCC4)c3)cs2)ccc1O,"inconclusive [inhibitor, single point]",–
CCCc1cc(=O)n2c([nH]c3ccccc32)c1C#N,"inconclusive [inhibitor, partial curve]",–
COc1ccc(NCC(=O)N/N=C/C=C\c2ccccc2)cc1,active: 9.46 µM,–
NS(=O)(=O)c1ccc(NC(=S)Nc2ccn(Cc3cccc4ccccc34)n2)cc1,active: 12.6 µM,–
c1ccc(Cc2nnc3sc(-c4ccncc4)nn23)cc1,active: 7.94 µM,–
CC1(C(=O)Nc2ccccc2)Cc2ccccc2C(=O)O1 (stereo unspecified),inactive,–
Cc1cc(C)nc(SCc2nnc(SCC(N)=O)o2)n1,inactive,–
Cc1cnc(CNc2ncnc3ccc(-c4ccccc4CN(C)C)cc23)cn1,"inconclusive [inhibitor, single point]",–
COc1cc(NS(=O)(=O)c2ccc(NC(=S)NC(=O)c3sc4ccccc4c3Cl)cc2)ncn1,active: 22.4 µM,–
COc1ccc(/C=C(\C#N)C(=O)NC2CCS(=O)(=O)C2)cc1OC (stereo unspecified),inactive,–
COc1ccc(-c2cc(-c3n[nH]c(=S)n3-c3cc(OC)ccc3OC)[nH]n2)cc1,active: 20 µM,–
CC(C)C(c1nnnn1C1CCCC1)N1CCN(C(=O)c2ccco2)CC1 (stereo unspecified),"inconclusive [inhibitor, single point]",–
O=C1C2C3C=CC(C3=C(c3ccccc3)c3ccccc3)C2C(=O)N1Cc1ccccc1 (stereo unspecified),active: 1.12 µM,–
N#CCSc1nc2ccccc2c(=O)n1-c1ccccc1,active: 12.6 µM,–
Cc1ccc(C)c(OCCCC(=O)Nc2ccccc2C(N)=O)c1,active: 23.8 µM,–
CCOc1ncnc2c1oc1nc(CC(C)C)c3c(c12)CC(C)(C)OC3,"inconclusive [inhibitor, single point]",–
COC(=O)CCC(=O)OC1(C)C(=O)C2=CN(CCc3c[nH]c4ccccc34)C(c3ccc(OC)cc3)=CC2=C(Br)C1=O (stereo unspecified),–,inactive: -2.99% [at 13.5 µM]
Cc1nc(NC(=O)c2cccs2)ccc1Br,inactive,–
Cn1c(C(=O)NCCc2ccsc2)cc2c(=O)n(C)c3ccccc3c21,"inconclusive [inhibitor, single point]",–
COc1ccc(C(=O)OCC(=O)c2ccc(C3CCCCC3)cc2)cc1,"inconclusive [inhibitor, single point]",–
CC#CCN1c2ccccc2[C@]23C[C@@H](C(=O)OC)N(C(=O)c4cccs4)C2=NC(C(=O)OC)=C(C(=O)OC)[C@H]13,–,inactive: 7.38% [at 13.5 µM]
CN(C)Cc1ccccc1-c1ccc2ncnc(N(C)C)c2c1,inactive,–

SMILES,Potency,"activity, negative = inhibition"
O=C(COC(=O)C1=COCCO1)NCc1ccc(Cl)cc1,inactive,–
CCN(CC)S(=O)(=O)c1ccc(N2CCOCC2)c(NS(=O)(=O)c2ccc(C)cc2)c1,active: 2.24 µM,–
CCOC(=O)N1CCC(NC(=O)c2ccc3c(=O)n4c(nc3c2)CCCC4)CC1,active: 2 µM,–
CC1CCN(C(=S)NC2CC3CCC2C3)CC1 (stereo unspecified),inactive,–
CC1(C)CC(=O)C(C=Nc2ccccc2Sc2ccccc2)=C(O)C1,"inconclusive [inhibitor, single point]",–
Nc1nonc1C(=O)N/N=C/c1ccc(-c2ccc(Cl)c(C(=O)O)c2)o1,active: 3.98 µM,–
CC(C)c1ccccc1OCCNC(=S)NC(=O)c1cccnc1,"inconclusive [inhibitor, single point]",–
CCN1CCN(CCCCSc2ccccc2)CC1,"inconclusive [inhibitor, single point]",–
Cc1ccc(S(=O)(=O)NCC(=O)N(CC(=O)NCC2CCCO2)Cc2ccccc2)cc1 (stereo unspecified),"inconclusive [inhibitor, partial curve]",–
O=C(CCCn1c(=S)[nH]c2ccccc2c1=O)NC1CCCCC1,inactive,–
COc1cc2c(cc1OC)C(=S)NC1(CCCC1)C2,"inconclusive [inhibitor, single point]",–
CN1C(=O)C2(OCC(COc3ccc(Cl)cc3)O2)c2ccccc21 (stereo unspecified),inactive,–
CCC(=O)NCCCCCCNC(=O)CC,inactive,–
C=CCn1c(Sc2ncc([N+](=O)[O-])s2)n[nH]c1=O,active: 2 µM,–
COc1cc([N+](=O)[O-])ccc1NC(=O)Cc1ccc(C)cc1,"inconclusive [inhibitor, single point]",–
C=CCCC(=O)Nc1nc(C)c(-c2csc(Nc3cc(Cl)ccc3OC)n2)s1,"inconclusive [inhibitor, single point]",–
CC(=O)N1CCC(Nc2ccc(C)cc2)CC1,inactive,–
C=CCn1c(N)c(C(=O)Nc2cccc(C)c2)c2nc3ccccc3nc21,"inconclusive [inhibitor, single point]",–
Cc1cc(NS(=O)(=O)c2ccc(Nc3nc(-c4ccc(O)cc4)cs3)cc2)no1,"inconclusive [inhibitor, partial curve]",–
O=C(CSc1nccc(=O)[nH]1)NN(c1ccccc1)c1ccccc1,inactive,–
CCOC(=O)N1CCN(C(=O)COc2ccc(S(=O)(=O)NC(C)C)cc2)CC1,inactive,–
CCOC(=O)N1CCN(c2c(NCCN(C)Cc3ccccc3)c(=O)c2=O)CC1,"inconclusive [inhibitor, single point]",–
Cc1ccccc1-n1c(=O)c2c(n3cnnc13)-c1ccccc1CC21CCCCC1,inactive,–
C1=C(CCNc2ncnc3c2[nH]c2ccccc23)CCCC1,"inconclusive [inhibitor, single point]",–
O=C1CC(c2ccco2)CC(O)=C1C=NCCN1CCN(C2CC(=O)N(c3ccccc3)C2=O)CC1 (stereo unspecified),"inconclusive [inhibitor, single point]",–
COc1cccc(-n2c(SCC(=O)NC3CCCC3)nnc2-c2ccco2)c1,"inconclusive [inhibitor, single point]",–

SMILES,Potency,"activity, negative = inhibition"
C[C@H](CCC(=O)O)C1CC[C@H]2C3CC[C@@H]4C[C@H](O)CC[C@]4(C)C3C[C@H](O)[C@]12C (stereo partly specified),inactive,–
CCCNC(=O)c1c(N)n(-c2cc(OC)cc(OC)c2)c2nc3ccccc3nc12,"inconclusive [inhibitor, partial curve]",–
CCCn1c(=NC(=O)c2c(-c3c(F)cccc3Cl)noc2C)c(C(=O)OCC)cc2c(=O)n3ccccc3nc21,"inconclusive [inhibitor, single point]",–
CC1(C)Cc2c(sc3ncnc(NNC(=S)NCc4ccccc4)c23)CO1,active: 1.41 µM,–
CCOC(=O)CSc1nnc(SCCN2C(=O)c3ccccc3C2=O)s1,active: 28.2 µM,–
COc1ccc(NC2CC(=O)N(c3ccccc3)C2=O)cc1 (stereo unspecified),"inconclusive [inhibitor, single point]",–
CCOC(=O)OCC1OC(C#Cc2ccc(C(C)(C)C)cc2)C=CC1OC(=O)OCC (stereo unspecified),–,inactive: -8.36% [at 13.5 µM]
COc1ccc(-n2nc(C(=O)Nc3cc(OC)c(OC)c(OC)c3)c3ccccc3c2=O)c(OC)c1,inactive,–
COc1ccccc1CNc1nc(-c2cccc(NS(C)(=O)=O)c2)nc2ccccc12,"inconclusive [inhibitor, single point]",–
CN(C)c1ccc(/C=C2\SC(=S)N(Nc3ncc(C(F)(F)F)cc3Cl)C2=O)cc1,inactive,–
Brc1ccc(-c2nnc(-c3ccccc3)c(N3CCSCC3)n2)cc1,inactive,–
Cc1nn(-c2nnc(NCc3ccccc3)nn2)c(C)c1Br,active: 28.2 µM,–
COc1ccccc1C(=O)NNC(=S)NC(=O)c1sc2ccccc2c1Cl,inactive,–
COc1ccc(-c2[nH]ncc2CN2CCSCC2)c(OC)c1,inactive,–
CCN(CC)C(=O)c1scc2c1OCCO2,inactive,–
O=C1CCC(c2ccccc2)N1C(=O)c1cccnc1 (stereo unspecified),inactive,–
Cc1cc2ccccn2c1C(=O)c1ccc(NN)c([N+](=O)[O-])c1,"inconclusive [inhibitor, single point]",–
O=C(N/N=C/c1cccc2ccccc12)c1n[nH]c2c1CCCC2,"inconclusive [inhibitor, partial curve]",–
C/C(=N\N1CCN(C)CC1)c1ccc(OC(F)F)cc1,inactive,–
Cc1[nH]c2ccccc2c1C(=O)C(=O)N1CCN(C(=O)c2ccco2)CC1,active: 6.31 µM,–
CC1(C)Cc2c(C#N)c(NCc3ccco3)nc(-c3ccco3)c2CO1,"inconclusive [inhibitor, partial curve]",–
CCc1nc(NCCc2ccccn2)c2nnn(Cc3ccccc3F)c2n1,"inconclusive [inhibitor, partial curve]",–
O=c1c2[nH]c3ccc(F)cc3c2ncn1C1CCCCC1,"inconclusive [inhibitor, partial curve]",–
COc1cc(NS(=O)(=O)c2ccc(NC(=O)c3ccc(S(=O)(=O)N4CCCCC4)cc3)cc2)ncn1,"inconclusive [inhibitor, partial curve]",–
